Experiment [1] concerns the target T1, recombinant human FGFR2 (Met 1-Glu 377) with C-terminal polyhistidine tag (human, UniProt P21802 fragment).
T1 construct: The range is that of the expressed DNA and begins at Met 1; also called His-tagged FGFR2; recombinant human FGFR2-IIIc molecule
The experiment in a line: protein binding ELISA; the reference itself. The source says: (§1) Two different types of ELISA were used to determine the binding improvement of mutated variants: a) Peptide Binding ELISA: a synthetic peptide comprising the amino acid sequence of the epitope linked C-terminally to a biotinylated lysine […]-Ttds-Lys(Biotin) (peptide sequence derived from SEQ ID NO:63, synthesized by JPT Peptide Technology GmbH, Berlin, Germany), and b) Recombinant Protein Binding ELISA: recombinant human FGFR2 (DNA sequence of human FGFR2 (NP 000132.3) Met 1-Glu 377, fused with a polyhistidine tag at the C-terminus; #10824-1-1081-1, Sin θ Biological Inc., Beijing, China).
(§2) Briefly, in both ELISA formats MTP plates (384 well Maxisorp, Nunc) were coated with 20 μl, anti-human IgG Fc specific (#12136; sigma) at 2.2 μg/ml for 2.5 h at 37° C. in coating buffer (#121125 Candor Bioscience GmbH). […] Anti-FGFR2 variants were immobilized in concentrations of 0.035 μg/ml (peptide based assay) or 0.2 μg/ml (recombinant human FGFR2 protein based assay) in 10% Smart Block in PBST depending on the format and variants to be analyzed by incubation of 20 μl for one hour at 20-22° C. […] After 3 washing steps 20 μl of 10 μM amplex red substrate (# A12222, Invitrogen) in 50 mM Sodium hydrogen phosphate, pH 7.6, were added and the fluorescence signal was detected using a common fluorescence reader, e.g. Tecan M1000. […]
On the technique in general: An ELISA detects its analyte on a solid surface through an enzyme-linked reagent.

Experiment [2] has as its target T2, RPSFSLVEDTTLEPEG-Ttds-Lys(Biotin) (human).
T2 construct: Synthesized by JPT Peptide Technology
T2 peptide: RPSFSLVEDTTLEPEG[Ttds]K(Biotin)
The experiment is described as follows: peptide binding ELISA; the reference itself.
Description: as §1
Briefly, in both ELISA formats MTP plates (384 well Maxisorp, Nunc) were coated with 20 μl, anti-human IgG Fc specific (#12136; sigma) at 2.2 μg/ml for 2.5 h at 37° C. in coating buffer (#121125 Candor Bioscience GmbH). […] Anti-FGFR2 variants were immobilized in concentrations of 0.035 μg/ml (peptide based assay) or 0.2 μg/ml (recombinant human FGFR2 protein based assay) in 10% Smart Block in PBST depending on the format and variants to be analyzed by incubation of 20 μl for one hour at 20-22° C. After one washing step using 50 μl PBST, 20 μl quadruplets of the antigen dilution series in 10% SmartBlock in PBST with a maximum concentration of 100 nM were added and incubated for 1 h at 20-22° C. and the washing step was repeated 3 times. For the detection of the biotinylated epitope peptide 20 μl of streptavidine/POD conjugate (# S5512, Sigma) in a 1:1000 dilution in 10% SmartBlock in PBST were applied for one hour at 20-22° C. For the detection of the recombinant FGFR2 protein 20 μl of anti-His/HRP conjugate (#71840, novagen) in a 1:10000 dilution in 10% SmartBlock in PBST were applied for one hour at 20-22° C. After 3 washing steps 20 μl of 10 μM amplex red substrate (# A12222, Invitrogen) in 50 mM Sodium hydrogen phosphate, pH 7.6, were added and the fluorescence signal was detected using a common fluorescence reader, e.g. Tecan M1000. EC50 values were evaluated by fitting the data (Sigmoida) dose-response, variable slope, bottom set to background; GraphPad Prism software).

Experiment [3] has as its target T1, recombinant human FGFR2 (Met 1-Glu 377) …. The experiment in a line: protein binding ELISA, antibody captured by anti-human IgG Fc, FGFR2-His titrated.
Description: as §1, §2

In experiment [4] the target is T2, RPSFSLVEDTTLEPEG-Ttds-Lys(Biotin). The experiment in a line: peptide binding ELISA, antibody captured by anti-human IgG Fc, biotinylated peptide titrated.
Description: as §1, §2

Experiment [5] concerns the target T3, rat FGFR2 on RUCA cells (rat, UniProt F1LNW0 41-840).
T3 construct: whole, on cells
The experiment is described as follows: FACS titration 0.1-100 nM, Ruca cells. On the procedure:
(§3) To determine the binding characteristics of the anti-FGFR2 antibodies on mouse, rat and human cancer cell lines, binding was tested by flow cytometry to a panel of cell lines. Adherent cells were washed twice with PBS (without Ca and Mg) and detached by enzyme-free PBS based cell dissociation buffer (Invitrogen). Cells were suspended at approximately 10⁵ cells/well in FACS buffer (PBS without Ca/Mg, Biochrom containing 3% FCS, Biochrom). Cells were centrifuged (250 g, 5 min, 4° C.) and supernatant discarded. Cell were resuspended in dilutions of the antibodies of interest (5 μg/ml in 80 μl if not indicated otherwise) in FACS buffer, and incubated on ice for 1 h. […] After incubation for 1 h on ice cells were again washed with cold FACS buffer, resuspended in 100 μl FACS buffer and analyzed by flow cytometry using a FACS-Array (BD Biosciences). Results are calculated as Geo Mean of the detection by the antibody of interest subtracted by background fluorescence as measured by detection with the secondary antibody alone. Values are scored according to the following system:
To determine the EC₅₀ values for binding of antibodies to selected cancer cell lines, cells were stained with FGFR2 antibodies as described above, but with various concentrations of antibodies ranging from 0.1-100 nM. […]

Experiment [6] addresses T4, mutated human FGFR2 on AN3-CA cells (human, UniProt P21802 22-821).
T4 construct: whole, on cells; also called AN3-CA (DSMZ-ACC 267)
The experiment in a line: FACS, 5 ug/ml, AN3CA cells. As for the experimental part:
as §3, with “alone.” for “alone. Values are scored according to the following system:”
Background: A flow cytometer gives signals particle by particle.

In experiment [7] the target is T5, N-terminal peptide of FGFR2 of human, mouse, rat, macaca mulatta (first 15 amino acids) (human, mouse, rat, macaca mulatta).
T5 peptide: RPSFSLVEDTTLEPE
The experiment is described as follows: SPR Biacore T100, IgG captured by anti-human IgG (Fc), peptide as analyte, 1:1 model. As for the experimental part:
(§4) Binding affinities of anti FGFR2 antibodies were determined by surface plasmon resonance analysis on a Biacore T100 instrument (GE Healthcare Biacore, Inc.). Antibodies as human IgG1 were immobilized onto a CM5 sensor chip through an indirect capturing reagent, anti-human IgG(Fc). Reagents from the “Human Antibody Capture Kit” (BR-1008-39, GE Healthcare Biacore, Inc.) were used as described by the manufacturer. Approximately 5000 RU monoclonal mouse anti-human IgG (Fc) antibody were immobilized per cell. Anti FGFR2 antibodies were injected at a concentration of 5 μg/ml at 141/min for 10 sec. […] Sensograms were generated after in-line reference cell correction followed by buffer sample subtraction. The dissociation equilibrium constant (KD) was calculated based on the ratio of association (kₒₙ) and dissociation rated (koff) constants, obtained by fitting sensograms with a first order 1:1 binding model using Biavaluation Software (version 4.0).

Experiment [8] addresses T6, N-terminal peptide of dog FGFR2 (first 15 amino acids) (dog).
T6 peptide: RPSFNLVEDTTLEPE
The experiment in a line: SPR Biacore T100, IgG captured, peptide as analyte. As for the experimental part: as §4
Background: Surface plasmon resonance follows binding to a sensor surface in real time, without labels.

The target in experiment [9] is T7, N-terminal peptide of rabbit FGFR2 (first 15 amino acids) (rabbit).
T7 peptide: RPSFNLVEDATVEPE
The experiment in a line: SPR Biacore T100, IgG captured, peptide as analyte. As for the experimental part: as §4

The target in experiment [10] is T8, N-terminal peptide of pig FGFR2 (first 15 amino acids) (pig).
T8 peptide: RPSFNLVEDTTVEPE
The experiment in a line: SPR Biacore T100, IgG captured, peptide as analyte. On the procedure:
as §4

The target of experiment [11] is T3, rat FGFR2 on RUCA cells. The experiment is described as follows: FACS, 5 ug/ml, RUCA cells. On the procedure:
as §3, with “alone.” for “alone. Values are scored according to the following system:”

Experiment [12] addresses T9, mutated human FGFR2 on MFE-296 cells (human, UniProt P21802 22-821).
T9 construct: whole, on cells
The experiment in a line: FACS, 5 ug/ml, MFE296 cells. On the procedure:
as §3, with “alone.” for “alone. Values are scored according to the following system:”

Experiment [13] deals with T6, N-terminal peptide of dog FGFR2 (first …). The experiment in a line: SPR Biacore T100, IgG captured by anti-human IgG (Fc), peptide as analyte, 1:1 model. On the procedure:
as §4

Experiment [14] addresses T7, N-terminal peptide of rabbit FGFR2 …. The description is as above. On the procedure:
as §4

The target in experiment [15] is T8, N-terminal peptide of pig FGFR2 (first …). The experiment is described as above. As for the experimental part:
as §4

Residue numbers refer to the chain shown, from its start. Numbered stars: 1 amine (or outer) side, 2 acyl side, 3 side chain; on linkers, the order of the positions; unused ones are H or OH. Square brackets hold non-standard residues; d marks the D form. Ends that are not written are not given here. * marks the point of attachment. Biotin = O=C1N[C@H]2[C@H](CS[C@H]2CCCCC(=O)*)N1; Ttds = O=C(CCC(=O)[*:2])NCCCOCCOCCOCCCN[*:1]

B1: TPP-1403 (antibody, human IgG1, lambda)
heavy: EVQLLESGGGLVQPGGSLRLSCAASGFTFSSYAMSWVRQAPGKGLEWVSAISGSGTSTYYADSVKGRFTISRDNSKNTLYLQMNSLRAEDTAVYYCARVRYNWNHGDWFDPWGQGTLVTVSS[human IgG1 constant region not listed]
light: AQSVLTQPPSASGTPGQRVTISCSGSSSNIGNNYVSWYQQLPGTAPKLLIYENYNRPAGVPDRFSGSKSGTSASLAISGLRSEDEADYYCSSWDDSLNYWVFGGGTKLTVLGQPKAAPSVTLFPPSSEELQANKATLVCLISDFYPGAVTVAWKADSSPVKAGVETTTPSKQSNNKYAASSYLSLTPEQWKSHRSYSCQVTHEGSTVEKTVAPTECS
By EC50 is commonly meant the concentration that produces a half-maximal response. On to B1, for which the “fold EC50 reduction” value in experiment [1] and in experiment [2] was 1 fold in each case. Moreover, the 50% effective concentration (EC50) in experiment [3] was 0.008 µM; in experiment [4], greater than 0.01 µM.

B2: M047-D08-hIgG1 (antibody)
heavy: EVQLLESGGGLVQPGGSLRLSCAASGFTFRTSGMHWVRQAPGKGLEWVAVISYDGSNKYYADSVKGRFTISRDNSKNTLYLQMNSLRAEDTAVYYCARESPGYDFEYWGQGTLVTVSS[human IgG1 constant region not listed]
light: QSVLTQPPSASGTPGQRVTISCSGSSSNIGSNTVNWYQQLPGTAPKLLIYGNSNRPSGVPDRFSGSKSGTSASLAISGLRSEDEADYYCAAWDDSLNGWVFGGGTKLTVLGQPKAAPSVTLFPPSSEELQANKATLVCLISDFYPGAVTVAWKADSSPVKAGVETTTPSKQSNNKYAASSYLSLTPEQWKSHRSYSCQVTHEGSTVEKTVAPTECS
notes: Human IgG1
What is called Kd is a measure of binding affinity in units of concentration. A low value points to a tighter complex. The molecule B2 displayed a half-maximal effective concentration (EC50) with rat FGFR2 on RUCA cells [5] of 0.001 µM. The “Geo Mean minus Geo Mean of secondary antibody alone (FACS)” value in [6] was 100 to 1000 geomean; in the experiment with rat FGFR2 on RUCA cells [11] it was 100 to 1000 geomean; in [12], 1000 to 10000 geomean. The same molecule gave a Kd in [7] of 0.101 µM. For the same molecule, the binding result in experiment [8], in experiment [9] and in experiment [10] was “no binding (tested: peptide up to 400 nM)” each time.

B3: TPP-1415 (antibody, human IgG1, lambda)
heavy: B2 heavy
light: B1 light with N32S, Y34T, S36N, E52G, Y54S, A58S, S91A, S92A, Y99G
As for B3, the “fold EC50 reduction” value in [1] and in [2] was 1 fold each time. The molecule also returned a fold signal in experiment [2] of 1 fold. In addition, the figures for the EC50 in experiment [3] and in experiment [4] were 0.008 µM and greater than 0.01 µM, respectively.

B4: M048-D01-hIgG1 (antibody)
heavy: B1 heavy
light: B2 light with S31N, T33Y, N35S, G51E, S53Y, S57A, A90S, A91S, G98Y
notes: Human IgG1; also called M048-D1; M048-D01-hNG1 [sic]
In turn, B4 returned an EC50 in the experiment with rat FGFR2 on RUCA cells [5] of 0.0009 µM. Besides, the “Geo Mean minus Geo Mean of secondary antibody alone (FACS)” value in [6] fell in the range of 100 to 1000 geomean; with rat FGFR2 on RUCA cells [11] it was 10 to 100 geomean; in [12], 1000 to 10000 geomean. Also, the Kd in [7] came out at 0.105 µM; in experiment [13] it was 0.072 µM; in experiment [14], 0.088 µM; in [15], 0.07 µM.
